# Test results from article PMC6919601, “Identification of Plasmodium dipeptidyl aminopeptidase allosteric inhibitors by high throughput screening” (PLoS ONE, 2019).
# The campaign covered roughly 110,000 compounds. About 230 (0.21%) showed an effect of 50% or more. The list shows a part of the results.
# Biological target: DPAP1 (Plasmodium falciparum, UniProt Q8IIJ9)
# Assay: primary screen, percent inhibition; read by cleavage of a fluorogenic dipeptide substrate; higher = more effect of the substance
# Design: species or system P. falciparum D10 trophozoite lysates; single well
# 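Further: 30 min substrate incubation versus DMSO and 10 µM JCP410 controls.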
# Sequence of DPAP1 (Q8IIJ9 whole entry, looked up): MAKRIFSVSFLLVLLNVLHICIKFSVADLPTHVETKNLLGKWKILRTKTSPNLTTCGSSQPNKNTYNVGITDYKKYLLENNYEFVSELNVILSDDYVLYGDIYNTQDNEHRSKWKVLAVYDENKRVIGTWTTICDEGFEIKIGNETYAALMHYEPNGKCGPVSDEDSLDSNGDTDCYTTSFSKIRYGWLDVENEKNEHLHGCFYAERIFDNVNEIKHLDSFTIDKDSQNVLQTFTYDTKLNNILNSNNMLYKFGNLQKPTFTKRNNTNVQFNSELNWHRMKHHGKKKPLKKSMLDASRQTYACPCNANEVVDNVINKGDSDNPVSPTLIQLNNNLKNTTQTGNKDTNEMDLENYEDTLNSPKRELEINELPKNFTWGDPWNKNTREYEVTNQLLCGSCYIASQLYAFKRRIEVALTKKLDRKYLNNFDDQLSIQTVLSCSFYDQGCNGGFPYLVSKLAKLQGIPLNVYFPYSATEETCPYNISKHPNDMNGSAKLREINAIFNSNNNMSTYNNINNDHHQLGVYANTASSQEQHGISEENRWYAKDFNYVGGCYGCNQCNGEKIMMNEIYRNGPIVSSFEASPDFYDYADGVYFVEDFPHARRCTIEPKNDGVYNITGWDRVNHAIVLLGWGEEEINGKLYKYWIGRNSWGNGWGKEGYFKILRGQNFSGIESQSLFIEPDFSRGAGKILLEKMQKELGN
row,Structure (SMILES),% Inhibition @ 10 uM
1,O=C(O)c1ccc2c(c1)C(=O)N(c1cc(C(F)(F)F)ccc1Cl)C2=O,3.72%
2,Cc1ccc(COC(=O)c2nn(-c3ccccc3)nc2N)cc1,-0.403%
3,Cc1ccc(C(=O)Cn2c(=N)n(C)c3ccccc32)cc1,-1.89%
4,COCc1nn2cc(-c3ccc(C)cc3C)nc2s1,-4.54%
5,Cc1ccc(S(=O)(=O)/N=C(/NC(Cc2ccccc2)C(=O)O)c2ccccc2)cc1 (centres unmarked),4.54%
6,Cc1nc(-n2cccc2)sc1C(=O)NCCc1ccc(Cl)cc1,4.22%
7,Cc1[nH]c2ccccc2c1CCN1C(=O)c2ccccc2C1=O,-1.57%
8,CCC(=O)N(/C=C1\Sc2ccccc2C1=O)c1cccc(Br)c1,-11%
9,Cc1nnc(N2CCCC(C(=O)NCCc3c[nH]c4ccccc34)C2)c2nn(-c3ccccc3)c(C)c12 (centres unmarked),5.04%
10,O=C1c2sc3nc4n(c(=O)c3c2CCC1Sc1ccccc1)CCCCC4 (centres unmarked),4.54%
11,CC(=O)c1ccc(NC(=O)C(C)(C(F)(F)F)C(F)(F)F)cc1,-3.09%
12,COc1cc(C2c3c(-c4ccccc4O)n[nH]c3C(=O)N2CCCO)cc(OC)c1OC (centres unmarked),-1.35%
13,CCCN1CCN(CCCNC(=O)c2sc3nc(C)cc(C)c3c2-n2cccc2)CC1,-6.82%
14,COc1ccccc1Nc1nc(NCC2CCCO2)c2ccccc2n1 (centres unmarked),0.472%
15,Cc1cc(/C=C2/NC(=O)N(c3ccccc3)C2=O)c(C)n1C(C)C,-0.95%
16,Cc1ccc(S(=O)(=O)NCCC(=O)NCCCN2CCOCC2)cc1,-0.406%
17,CC(C)OCCCNC(=O)c1cc(-c2cccnc2)nc2ccccc12,-2.26%
18,CC1CCc2c(sc(NC(=O)COc3ccc(Cl)cc3)c2C(N)=O)C1 (centres unmarked),-2.46%
19,O=C(CSc1ncccn1)Nc1cccc(C(F)(F)F)c1,-7.62%
20,COc1ccc(-c2noc(CC(=O)N3CCC(C)CC3)n2)cc1,4.84%
21,CN(C)c1ccnc2sc(C(=O)c3ccccc3)c(N)c12,3.05%
22,Cc1nc2ccc(Cl)cc2c(-c2ccccc2)c1C(=O)O,-3.14%
23,O=C(Cn1nc(-c2ccccc2)ccc1=O)NCC1CCCO1 (centres unmarked),-1.21%
24,CC1CC(C)CN(C(=O)Cn2c(=O)c3cccn3c3cccnc32)C1 (centres unmarked),-4.46%
25,CCOc1cc(/C=C2/C(=N)N3OC(C)=CC3=NC2=O)ccc1OCCOc1cccc(OC)c1,-5.1%

row,Structure (SMILES),% Inhibition @ 10 uM
1,CCOC(=O)N1CCC(NC(=O)c2cc(S(=O)(=O)N3CCCC3)cn2C)CC1,-1.56%
2,Cc1cc(C)c2c(-n3cccc3)c(C(=O)NCCCN3CCCC3=O)sc2n1,3.87%
3,Nc1ccc(C2(c3ccc(N)cc3)CCCCC2)cc1,0.135%
4,N#CC(C#N)=Cc1cccc(Oc2ccccc2)c1,-5.36%
5,CCN(CCO)Cc1csc2c(Br)cccc12,-6.33%
6,Cc1cc(C(=O)Nc2cnn(Cc3ccc(Cl)cc3Cl)c2)no1,-3.12%
7,CCC(=O)c1cc2c(cc1NC(=O)c1cccc(Cl)c1)OCCO2,-5.23%
8,c1ccc2c(CSc3nc[nH]n3)cccc2c1,-4.31%
9,COc1ccc(S(=O)(=O)NC2CCC(NS(=O)(=O)c3ccc(OC)cc3)CC2)cc1 (centres unmarked),-5.23%
10,CC(=O)c1c(S)nc(-c2ccccc2)nc1N1CCN(Cc2ccccc2)CC1,29.2%
11,Cc1ccccc1-n1nnc(-c2nc(-c3ccncc3)no2)c1N,-2.15%
12,O=C(CN(C(=O)c1ccccc1)c1ccccc1)c1ccccc1,0.565%
13,C=Cn1cnc2c1c(=O)n(C)c(=O)n2C,-0.467%
14,CN1CCC(N(C)Cc2cc(Br)cs2)CC1,2.33%
15,CCCCOc1ccc(C(C)NC(=O)CCS(=O)(=O)Cc2ccc(C)cc2)cc1 (centres unmarked),-0.0542%
16,N=C1S/C(=C/c2ccc(-c3cccc(F)c3)o2)C(=O)N1c1nccs1,5.14%
17,O=C1/C(=C/c2cccnc2)CS/C1=C\c1cccnc1,1.16%
18,O=C(Nc1ccc2oc(-c3cccc(Br)c3)nc2c1)c1ccco1,-0.297%
19,Cc1ccc(Nc2cc(C)nc(-c3ccccc3O)n2)cc1,-1.59%
20,CCOC(=O)c1c(C)[nH]c(C)c1S(=O)(=O)N1CCC(C(=O)NCC(C)c2ccccc2)CC1 (centres unmarked),0.533%
21,Cc1ccc(NC(=O)CN(c2ccccc2F)S(C)(=O)=O)cc1C,2.02%
22,CCOC(=O)C1=C(C)N(CC(C)C)C(=O)/C1=C\c1ccccc1OCc1ccccc1,1.81%
23,CC(=O)C1=C(C)CC2C3CC=C4CC(O)CCC4(C)C3CCC12C (centres unmarked),5.04%
24,CC(C)C[C@H](NC(=O)c1cccc(S(=O)(=O)N2CCN(C)CC2)c1)C(=O)NCC#N,3.66%
25,CN1C(=O)C2Cc3c([nH]c4ccccc34)C(c3cccnc3)N2C1=S (centres unmarked),-1.8%
